Reference: the supplement of paper PMC9446081
Out of some 39,000 compounds screened, about 220 (0.56%) showed activity. Some of the results follow.
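Also: static incubation at 37 °C against the wild-type strain, values averaged over two biological replicates.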

What follows are compounds tested on Escherichia coli K-12 BW25113 (assay: relative growth (OD600 normalised to plate interquartile mean) (fraction); higher = less growth inhibition, active = 0.2 or less). Conditions: 50 µM; LB; incubation time: overnight (16-24 h).
`Cc1n[nH]c(=O)[nH]c1=O` was tested, and the relative growth was inactive: 1. `COc1ccc(NC(=O)Nc2ccc3c(c2)CC(=O)N([C@@H](C)CO)C[C@H](C)[C@H](CN(C)Cc2ccc(Oc4ccccc4)cc2)O3)cc1` was tested, and the relative growth was inactive: 1.03. `C[N+]1(C)C[C@@H](O)C[C@H]1C(=O)O` was tested, and the relative growth was inactive: 0.989. In the case of `C[C@@H]1CN([C@H](C)CO)C(=O)c2cc(C3=CCCCC3)cnc2O[C@H]1CN(C)C(=O)CN1CCOCC1`, the relative growth is reported as inactive: 0.988. `C[C@H]1CN([C@@H](C)CO)C(=O)Cc2cc(NC(=O)Nc3ccc(C(F)(F)F)cc3)ccc2O[C@H]1CN(C)Cc1ccc2c(c1)OCO2` was tested, and the relative growth was inactive: 1.02. With `Cc1noc(C)c1S(=O)(=O)N(C)C[C@H]1OCCCC[C@H](C)Oc2ccc(NS(C)(=O)=O)cc2C(=O)N([C@H](C)CO)C[C@H]1C` the relative growth was inactive: 1. For `COc1ccc(S(=O)(=O)N(C)C[C@H]2OCCCC[C@H](C)Oc3ccc(NS(C)(=O)=O)cc3C(=O)N([C@H](C)CO)C[C@@H]2C)cc1`, the relative growth was inactive: 1.02. For `COc1ccc(S(=O)(=O)Nc2ccc3c(c2)C(=O)N([C@@H](C)CO)C[C@H](C)[C@H](CN(C)C(=O)Nc2ccc(C(F)(F)F)cc2)OCCCC[C@H](C)O3)cc1`, the relative growth was inactive: 1.02. `C[C@H](CO)N1C[C@H](C)[C@H](CN(C)S(=O)(=O)c2cccs2)Oc2c(NS(=O)(=O)c3cccs3)cccc2C1=O` was tested, and the relative growth was inactive: 1.01. `COc1ccc(NC(=O)Nc2ccc3c(c2)[C@H]2C[C@H](CC(=O)N4CCN(C)CC4)O[C@H](CO)[C@H]2O3)cc1` was tested, and the relative growth was inactive: 1.01. `C[C@@H]1CN([C@H](C)CO)C(=O)c2cc(NC(=O)C3CC3)ccc2O[C@H]1CN(C)Cc1ccc(C(=O)O)cc1` was tested, and the relative growth was inactive: 0.983. With `COc1ccc(NC(=O)N(C)C[C@@H]2OCc3ccccc3-c3c(n(C)c4ccccc34)C(=O)N([C@@H](C)CO)C[C@H]2C)c(OC)c1` the relative growth was inactive: 0.978. For `O=C(C[C@@H]1C[C@H]2c3cc(NS(=O)(=O)c4ccc(F)cc4)ccc3O[C@H]2[C@H](CO)O1)NCc1cccc(F)c1`, the relative growth was inactive: 1.05. For `NC(=O)Cc1ccc(O)cc1`, the relative growth was inactive: 0.97. In the case of `CO[C@H]1CN(C)C(=O)c2ccc(NS(=O)(=O)c3cn(C)cn3)cc2OC[C@@H](C)N(Cc2cccc(F)c2)C[C@@H]1C`, the relative growth is reported as inactive: 1.01. `CN1CC2(CCC1=O)CCN(C(=O)c1cc(=O)n(C)c(=O)n1C)CC2` was tested, and the relative growth was inactive: 1.03. With `O=C(CCCCCNC(=O)OCc1ccc(CO[C@H]2C[C@@H](c3ccc(C(F)(F)F)cc3)C=C(C(=O)N3CCN(Cc4ccc5c(c4)OCO5)CC3)O2)cc1)NO` the relative growth was inactive: 0.983. With `COc1ccc(CN(C)C[C@@H]2OCCCC[C@H](C)Oc3ccc(NC(=O)c4ccccc4)cc3C(=O)N([C@H](C)CO)C[C@@H]2C)cc1` the relative growth was inactive: 1. `C[C@@H]1CN([C@@H](C)CO)C(=O)c2cccc(NC(=O)Nc3ccc(C(F)(F)F)cc3)c2O[C@@H]1CN(C)C(=O)Nc1ccccc1` was tested, and the relative growth was inactive: 0.972. With `CCCNC(=O)c1cc2c(c(-c3cccc(-c4cccc(OC)c4)c3)n1)[C@@H](CCO)N([S@](=O)C(C)(C)C)C2` the relative growth was inactive: 1.02. In the case of `C[C@@H]1CN([C@@H](C)CO)C(=O)c2cccc(NS(=O)(=O)c3ccc(F)cc3)c2O[C@H]1CN(C)CC1CC1`, the relative growth is reported as inactive: 1.02. In the case of `Cc1noc(C)c1S(=O)(=O)Nc1ccc2c(c1)C(=O)N([C@@H](C)CO)C[C@H](C)[C@@H](CN(C)Cc1ccc3c(c1)OCO3)O2`, the relative growth is reported as inactive: 0.995. With `CC(=O)N[C@@H]1CC(=O)N(c2ccccc2)C1` the relative growth was inactive: 0.976. In the case of `Cc1cccc[n+]1C`, the relative growth is reported as inactive: 0.999. For `C[C@@H]1CN([C@H](C)CO)C(=O)c2cc(NC(=O)C3CCCCC3)ccc2O[C@@H](C)CCCCO[C@H]1CN(C)C(=O)C1CCCCC1`, the relative growth was inactive: 0.988. In the case of `CO[C@H]1CN(C)C(=O)c2cc(NS(=O)(=O)c3ccccc3)ccc2OC[C@H](C)N(C(=O)NC(C)C)C[C@@H]1C`, the relative growth is reported as inactive: 1.01. With `O=c1[nH]cc(NCc2ccccc2)c(=O)[nH]1` the relative growth was inactive: 1.04. With `CN(C)CCc1cc(Br)c(OCCCNC(=O)/C=C/c2cc(Br)c(OCCN3CCCCC3)c(Br)c2)c(Br)c1` the relative growth was inactive: 0.975. `C[C@H](CO)N1C[C@H](C)[C@H](CN(C)Cc2ccc(-c3ccccc3)cc2)Oc2c(NC(=O)Nc3cccc4ccccc34)cccc2C1=O` was tested, and the relative growth was inactive: 1.01. With `C[C@@H]1CN([C@H](C)CO)C(=O)Cc2cc(NS(=O)(=O)c3cn(C)cn3)ccc2O[C@H]1CN(C)CC1CCCCC1` the relative growth was inactive: 1. For `C[C@@H]1CCCCO[C@@H](CN(C)C(=O)Nc2ccc3c(c2)OCO3)[C@H](C)CN([C@H](C)CO)C(=O)c2cc(NS(=O)(=O)c3ccc(Cl)cc3)ccc2O1`, the relative growth was inactive: 1.04. `CNC(=O)c1cc(N)ccc1F` was tested, and the relative growth was inactive: 1.04. In the case of `COc1ccc(NC(=O)Nc2ccc3c(c2)CC(=O)N([C@@H](C)CO)C[C@@H](C)[C@@H](CN(C)S(=O)(=O)c2cn(C)cn2)O3)cc1`, the relative growth is reported as inactive: 1.01. In the case of `COc1ccc(S(=O)(=O)Nc2ccc3c(c2)C(=O)N([C@H](C)CO)C[C@@H](C)[C@@H](CN(C)C(=O)Nc2cccc4ccccc24)OCCCC[C@@H](C)O3)cc1`, the relative growth is reported as inactive: 1.01. In the case of `C[C@@H]1CN([C@H](C)CO)C(=O)c2cc(NC(=O)CCCN(C)C)ccc2O[C@@H]1CN(C)S(=O)(=O)c1cccs1`, the relative growth is reported as inactive: 1.01. For `CC[C@@H]1OC(=O)C[C@@H](O)[C@H](C)[C@@H](O[C@@H]2O[C@H](C)[C@@H](O)[C@H](N(C)C)[C@H]2O)[C@@H](CCN2C[C@H](C)C[C@H](C)C2)C[C@@H](C)C(=O)/C=C/C(C)=C\[C@@H]1CO[C@@H]1O[C@H](C)[C@@H](O)[C@@H](OC)[C@H]1OC`, the relative growth was inactive: 0.767. In the case of `C=CCOC(=O)[C@H]1[C@@H]2C(=O)O[C@@H](c3ccccc3)[C@@H](c3ccccc3)N2[C@@H](c2ccc(OCCOC(=O)[C@H]3C[C@H]4C(=O)N[C@@H](CCCCN(C)C)C(=O)N4[C@H]3c3ccc(O)cc3)cc2)[C@]12C(=O)Nc1ccc(I)cc12`, the relative growth is reported as inactive: 0.965. `C[C@@H]1CN([C@@H](C)CO)C(=O)c2cc(C#Cc3cccnc3)cnc2O[C@H]1CN(C)S(=O)(=O)c1ccccc1F` was tested, and the relative growth was inactive: 1. For `C[C@H]1CN([C@@H](C)CO)C(=O)Cc2cc(NC(=O)C3CC3)ccc2O[C@@H]1CN(C)S(=O)(=O)c1ccc(F)cc1`, the relative growth was inactive: 1.03. For `C[C@@H]1CN([C@@H](C)CO)C(=O)c2cc(NC(=O)CCC(F)(F)F)ccc2O[C@@H](C)CCCCO[C@@H]1CN(C)C(=O)Nc1cccc2ccccc12`, the relative growth was inactive: 1.01. In the case of `COc1ccc(NC(=O)Nc2ccc3c(c2)CC(=O)N([C@H](C)CO)C[C@H](C)[C@@H](CN(C)Cc2ccc(C(=O)Nc4ccccc4N)cc2)O3)cc1`, the relative growth is reported as inactive: 1.01. For `COc1ccc(S(=O)(=O)N(C)C[C@H]2Oc3ccc(NC(=O)CCC(F)(F)F)cc3CC(=O)N([C@@H](C)CO)C[C@@H]2C)cc1`, the relative growth was inactive: 0.985. In the case of `Nc1c[n+](N2CCOCC2)no1`, the relative growth is reported as inactive: 0.996. With `Cc1cc2n(c(=O)c1C(N)=O)CCO2` the relative growth was inactive: 1.02. With `O=C1OCc2cc(-n3cnnn3)ccc21` the relative growth was inactive: 0.975. With `C[C@@H]1CN([C@H](C)CO)C(=O)c2cccc(NC(=O)c3cnccn3)c2O[C@@H]1CN(C)Cc1ccc2c(c1)OCO2` the relative growth was inactive: 0.997. With `Cc1noc(C)c1S(=O)(=O)N(C)C[C@H]1Oc2ccc(NC(=O)Cc3cn(C)c4ccccc34)cc2CC(=O)N([C@H](C)CO)C[C@H]1C` the relative growth was inactive: 0.953. In the case of `Cc1ccc(S(=O)(=O)Nc2ccc3c(c2)C(=O)N([C@@H](C)CO)C[C@@H](C)[C@H](CN(C)C(=O)Nc2c(C)noc2C)OCCCC[C@H](C)O3)cc1`, the relative growth is reported as inactive: 1.03. For `NC(=O)c1nnc2ccc(Cl)cc2c1N`, the relative growth was inactive: 1.02. In the case of `Cc1ccc(S(=O)(=O)Nc2ccc3c(c2)C(=O)N([C@@H](C)CO)C[C@H](C)[C@H](CN(C)C(=O)NC2CCCCC2)OCCCC[C@@H](C)O3)cc1`, the relative growth is reported as inactive: 0.993. `C[C@@H]1CN([C@@H](C)CO)C(=O)c2cc(NC(=O)Nc3ccc(F)cc3)ccc2O[C@@H]1CN(C)Cc1ccc(Oc2ccccc2)cc1` was tested, and the relative growth was inactive: 1. `Cc1ccc(S(=O)(=O)Nc2ccc3c(c2)C(=O)N([C@H](C)CO)C[C@@H](C)[C@@H](CN(C)Cc2ccc(-c4ccccc4)cc2)O3)cc1` was tested, and the relative growth was inactive: 1.04. In the case of `C[C@H]1CN([C@@H](C)CO)C(=O)Cc2cc(NS(=O)(=O)c3ccc(F)cc3)ccc2O[C@@H]1CN(C)Cc1ccc(-c2ccccc2)cc1`, the relative growth is reported as inactive: 0.993. With `CN(C)CCCNC(=O)C[C@@H]1CC[C@H]2[C@H](COc3ccc(NC(=O)NC4CCCC4)cc3C(=O)N2C)O1` the relative growth was inactive: 1.01. In the case of `Cc1ccc(S(=O)(=O)N(C)C[C@@H]2OCCCC[C@H](C)Oc3ccc(NC(=O)Cc4ccccc4)cc3C(=O)N([C@H](C)CO)C[C@H]2C)cc1`, the relative growth is reported as inactive: 1.02. In the case of `N=C(N)NCCC[C@@H](NC(=O)[C@@H]1CCCN1C(=O)[C@H]1CSSCCC(=O)N[C@@H](Cc2ccc(O)cc2)C(=O)N[C@@H](Cc2ccccc2)C(=O)N[C@@H](CCC(N)=O)C(=O)N[C@@H](CC(N)=O)C(=O)N1)C(=O)NCC(N)=O`, the relative growth is reported as inactive: 1.01. In the case of `C[C@@H]1CN([C@@H](C)CO)C(=O)Cc2cc(NS(=O)(=O)c3ccccc3)ccc2O[C@H]1CN(C)S(=O)(=O)c1cn(C)cn1`, the relative growth is reported as inactive: 1. For `Cc1noc(C)c1NC(=O)N(C)C[C@@H]1Oc2ccc(NC(=O)c3ccncc3)cc2CC(=O)N([C@@H](C)CO)C[C@@H]1C`, the relative growth was inactive: 1.01.
